Laboratory results reported in the supplement of paper PMC3334620.
In all, about 33,000 sequences were measured (“E-score (-0.5 to 0.5)”: median about -0.012, highest 2% from about 0.29 on). The list shows a part of the results.

The sequences below were run against T1, Ybr033w (UniProt P38073) (assay: PBM E-score (8-mer binding enrichment) (E-score (-0.5 to 0.5)); higher = stronger / more preferred TF binding; most listed sequences are background and not binding sites). Conditions: protein concentration: 200 nM; construct: GST-full length.
T1 sequence: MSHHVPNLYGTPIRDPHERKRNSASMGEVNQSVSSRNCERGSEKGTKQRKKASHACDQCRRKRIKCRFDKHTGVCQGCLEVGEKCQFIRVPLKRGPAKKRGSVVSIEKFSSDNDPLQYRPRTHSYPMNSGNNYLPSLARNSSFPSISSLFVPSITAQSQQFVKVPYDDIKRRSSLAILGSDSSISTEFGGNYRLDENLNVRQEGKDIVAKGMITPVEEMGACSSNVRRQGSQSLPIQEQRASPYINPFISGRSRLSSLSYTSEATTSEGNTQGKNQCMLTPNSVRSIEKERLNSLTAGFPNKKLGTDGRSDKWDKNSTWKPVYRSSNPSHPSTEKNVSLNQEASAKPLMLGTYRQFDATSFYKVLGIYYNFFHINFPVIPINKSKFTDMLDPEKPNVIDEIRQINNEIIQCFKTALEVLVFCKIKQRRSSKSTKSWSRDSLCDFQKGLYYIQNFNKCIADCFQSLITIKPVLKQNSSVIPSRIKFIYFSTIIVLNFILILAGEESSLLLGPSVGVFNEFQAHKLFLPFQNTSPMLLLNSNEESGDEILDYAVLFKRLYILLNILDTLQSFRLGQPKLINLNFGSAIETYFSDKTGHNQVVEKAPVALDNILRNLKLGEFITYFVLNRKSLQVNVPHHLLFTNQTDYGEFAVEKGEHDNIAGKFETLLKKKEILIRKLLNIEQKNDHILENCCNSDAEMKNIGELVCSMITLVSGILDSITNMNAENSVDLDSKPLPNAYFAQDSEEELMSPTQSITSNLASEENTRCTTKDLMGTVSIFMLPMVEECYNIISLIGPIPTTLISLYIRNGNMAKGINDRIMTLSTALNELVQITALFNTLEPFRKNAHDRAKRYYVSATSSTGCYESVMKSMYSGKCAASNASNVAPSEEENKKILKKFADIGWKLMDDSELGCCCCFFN
Summary of the method: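 PURExpress in vitro transcription/translation supplied GST-tagged yeast transcription factors, either full-length or DNA-binding domain. Applied at about 100-200 nM to universal all-10-mer Agilent arrays double-stranded by primer extension, the bound protein was detected with fluorescent anti-GST. E-scores, modified Wilcoxon-Mann-Whitney statistics, were given by the Universal PBM Analysis Suite to ungapped eight-base words pooled with their reverse complements after masliner normalisation.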

Sequence	PBM E-score
AGCGTAAT	0.0639
CGGCTGCC	-0.147
GATTTAGC	0.105
TCCAGTCA	-0.152
ACGGGCCG	-0.31
AGGATGTG	0.0486
CGGTATCA	0.0534
CCAACGGG	-0.227
AGAACATG	0.0118
GACGTCCC	-0.266
AGGTCGGA	0.0666
CATGTATC	0.0786
TGCTTAAA	0.274
GCCCTTCA	-0.118
AGCCGCGC	-0.158
CCATGACC	-0.148
AGAGCGTG	-0.237
CTTATCTA	0.247
ATGCGAAA	0.165
AGTGGGAC	-0.209
ATAAGTAG	0.097
ACACAGGT	-0.0343
CACAAGGG	-0.253
AGGTGGCC	-0.277
AATGAAGA	0.202

Sequence	PBM E-score
AGATGCCA	-0.0032
GGCCCGCA	-0.239
CCTTCCAG	-0.294
AATTACGA	0.277
CCTTGACG	-0.139
GAGTCTTA	-0.0704
GGTCTCCA	-0.0292
AGCTACCT	0.0619
TCTGGGAA	-0.0142
ACTCGTCG	-0.126
TATTTTCA	0.224
ATTGCGAG	0.0737
AATCGACA	0.204
ATGTCATA	0.194
GCCACCAA	-0.033
CACACCAA	0.0962
TCGTCGAA	0.145
AGCTTTTG	0.0346
CTGCTCCA	-0.0917
GTTCTAGA	0.113
AGTACAAC	-0.0666
CACTAGGG	-0.133
GGACACAC	-0.242
CGAGCGCG	-0.049
ACTCAGGG	-0.17

Sequence	PBM E-score
CCTAGTTC	0.0249
AAGTATAG	0.12
CAATGCGG	-0.0396
AAGAGCAA	-0.212
ACATCGGT	-0.149
GTGCGCAC	0.0505
CGCTAAAA	-0.00547
CCCATAGA	-0.207
ACCGCCAG	-0.143
AAGTGACG	0.0266
GAAAGTAA	0.104
GTTCTATA	0.0383
AGATCAGG	-0.108
CTTGACCC	-0.263
AGCGTCAC	-0.126
CTTCATGC	-0.104
AATGACAT	0.11
CATTGAAC	0.124
ACCTCAAG	-0.0671
TAAAGTAA	0.154
TATGCACA	0.139
CGCATATA	-0.0552
CCCCCCTA	-0.285
GGCGCGTA	-0.211
GATATTCC	0.417

Sequence	PBM E-score
TCCTAGGA	0.0318
ACTTTACC	0.261
TGGGATAA	0.123
GAGTCGAA	0.173
ATGATTCC	0.336
AGTCAAAA	0.098
CTTCAGGA	0.177
ACACTTCA	0.135
CCAGCATA	-0.0558
ATCGGTCC	-0.247
CCTGATAG	-0.156
GTCTCGGA	-0.0865
AGGCTTGC	-0.0927
AGAGCTCG	-0.192
ACTGCAGA	-0.049
GGGTCCAC	-0.303
AACTCGGC	0.0677
CTAGTTAA	0.15
CTGCGGAC	-0.164
ACCACAGC	-0.0174
CTGGAAAA	0.377
TACTAAGA	0.104
CGAGTCCG	-0.11
AAGACTGG	0.0624
CGACAGAG	-0.0289

Sequence	PBM E-score
TGGAGCCA	-0.169
CAGGGGTC	-0.266
CCTCGTCG	-0.059
AGATAGGC	-0.113
AGCACGGG	-0.171
CAATAGAG	-0.0533
ACGTGCCG	-0.222
CATACCTA	0.0448
AGAAGGTC	0.0252
GGAGCAGA	-0.231
AGAAGTAT	0.184
CGCGTAGA	-0.0474
ACCGAAGG	-0.101
GCCGAGGA	0.148
GAGGTGGA	-0.223
TCGTGACA	-0.171
CCCCCGGG	-0.364
CCTTATAG	0.153
ACCCTTCA	-0.0354
CCATATCG	0.0253
ACTAAGCC	0.112
TAGATTGA	0.233
GAAACAGA	0.18
TACCCACA	-0.122
TCTCCCCA	-0.207

Sequence	PBM E-score
CAATAACC	0.171
TAAGGGTA	-0.0451
GGCCGGTA	-0.154
ATGCCGGA	-0.149
GGGGTCAC	-0.315
CAAGCGGG	-0.129
AACTACTT	0.202
CAACGAAC	0.00792
AGAGGAGA	-0.155
AGAAATTA	0.352
CTGCCGGC	-0.252
GTGGAACA	0.226
CTACCTAC	0.0345
CACAGGTA	-0.00986
GTGTGGCA	-0.261
ATCTTCAG	0.185
ATTTCCGG	0.298
AAATTGGT	0.249
GCAGGCTA	-0.193
ACGTGGGC	-0.26
CTGCCGGA	0.0691
CACCTTGG	-0.135
ATTACGCC	-0.112
ACTGAGAC	-0.148
ATGGCTTC	-0.109

Sequence	PBM E-score
CTGCGAGC	-0.143
TCGGTTAA	0.197
CGGGTGGA	-0.212
AAATATCC	0.273
ACGCCGAC	-0.109
ATCTGTCA	0.0887
AACCGAAT	0.0877
GCAAGTAA	0.166
CTCGATTC	-0.105
CCGGCTCA	0.0849
ATGCCGAG	-0.0146
ATGCAATC	0.103
AAGGCGCG	-0.216
ATTCCAAT	0.217
AAACCCGC	0.066
CACACGAA	0.184
CTTCTTTA	0.00566
CGTATGAA	0.154
ATGGACTA	0.0935
ACAGACTA	-0.117
ACCAGAAG	0.067
ATACCTTC	-0.0665
TGGTTACA	-0.0198
ACCTTCAG	-0.00645
GTAAATTA	0.193

Sequence	PBM E-score
CAGGCCGC	-0.233
CGAATCCG	-0.0573
CAGATATA	0.175
CACGCTCC	-0.18
ATTCAACA	0.216
AGCCTTTC	-0.122
GAAGTCAA	0.14
AATCCTTA	0.269
CCTTTAAC	0.0817
CCCCCCCG	-0.5
ATTCGCGA	0.0308
ATAGTCAT	-0.0534
AAAAGCCT	-0.149
CCCGGGCC	-0.306
GTGTATAA	-0.0348
GCCCTCGC	-0.155
ATGTGGCG	-0.018
CACACTCA	0.15
CCGACGCC	-0.121
AATAGGGT	0.0693
CCGACTGA	-0.0552
ATACACTA	0.174
AGCCTCCC	-0.254
ACACAAAG	0.0312
CAAATCAA	0.236

Sequence	PBM E-score
CCGCACAC	-0.11
TCGAGCGA	0.0287
CAAGTATG	0.137
CCTGATTA	0.106
AGATCGGA	0.179
ACAGTACA	0.0358
AATTGTCC	0.163
AGACAGTG	-0.0814
AGGGAATG	-0.0266
CCTGTCGC	-0.21
AGAATTCT	0.233
ATGTCTGG	-0.0339
GAAATCTA	0.116
AGCACAGA	-0.0533
AGACTTTA	-0.0387
GAATAGCA	0.0431
GTAGTTTA	0.198
CCTTTTTC	0.182
ACCCCGTA	-0.0435
AAAAAAAC	0.24
GAAACGAC	0.00932
ACCTAACA	0.0697
CAAGGACG	-0.242
ACTTGAGG	-0.209
GCTGCACA	-0.269

Sequence	PBM E-score
CGCCGGCA	-0.186
ACGGGCCA	-0.311
CAAAGGCC	-0.0585
CCCCTGCG	-0.396
GACTGTGC	-0.201
CCGACCCA	-0.348
CTTGAGGC	-0.163
AACAGTAC	0.141
ACGCTGGC	-0.209
AAGTACGC	0.0662
ATTGTACA	0.104
TTATGCAA	0.164
ACTGAACG	-0.0959
GTGACAGA	0.01
ACATTAAC	0.167
AGCGTCCT	-0.174
CTCCTTAC	0.146
ACGAGGAT	-0.0513
AGTTCCGC	0.21
GTTTTTCA	0.0689
ATGGGATA	0.0325
ATCGCATA	0.198
GAAAACCA	-0.0423
ATCCAAAT	0.0469
TGACTCAA	-0.0145

Sequence	PBM E-score
ATTCCCAA	0.267
CCCTCTTC	-0.359
GCGGGCCC	-0.324
AGATTCCG	0.153
GGTCCTTA	-0.0676
ACTGCTCA	0.122
AGAGAGCT	-0.245
CCAGGCCG	-0.137
CGCACATA	-0.204
CAAAAGGA	0.168
AGTTGGGG	-0.126
ATTCAAGA	0.191
GACGAACA	0.0851
CGCTAGTC	-0.318
GGCAGAAA	0.247
GTCCTCAC	-0.13
AACGGCTA	0.0615
AAGCAATA	0.13
ATAGGCCC	-0.207
AAGTACAC	0.116
CTCGTCTA	-0.0771
ATCCAGCA	0.029
GCGTATAC	0.0475
GGTCAGCA	0.0405
CCGCATAC	0.0488

Sequence	PBM E-score
ATGGAGTA	0.0791
AGGAGAAC	-0.128
CGTTGTAC	0.101
GTGAGGGA	-0.267
TAAGCACA	0.145
AATTCTGA	0.232
GTCCTCAA	0.0693
CGGGTCCC	-0.343
ATCCCATG	-0.106
ATGTGCTC	-0.0237
GACGCGGA	-0.113
CAACGTCG	-0.0717
CTCAAGGC	-0.0255
ATACACTC	0.0996
ACAGCCGG	0.0375
ACCAAGCA	-0.0203
CATATTAA	0.347
CCATTTTC	0.161
ACCGCCTA	-0.146
ACAGCACC	-0.205
AGTTATGC	0.0871
GGTTTGGA	-0.0328
AGTTATAA	0.151
ATGTCGTG	-0.161
CGTACAAG	0.026

Sequence	PBM E-score
CGCATGTA	-0.12
CTAATTCA	0.135
ACTGTTAC	0.0169
AAGCTCGA	0.138
ATGTCTGA	0.0588
CAGTGAAA	0.126
AACGAACA	0.196
GGCGCCGA	-0.104
AGCCTGCC	-0.168
TCCAAAAA	0.115
CAACGTCA	0.108
GAGACCGA	-0.0812
GTAATGGA	0.163
GACCATGC	-0.154
AAGACTTC	-0.187
CCGTCAGG	0.0345
ACTCCTGG	-0.192
CCGATACG	-0.254
CCCCTAAG	-0.157
GAATTGGA	0.03
CGTTGCCC	-0.31
CATGAACC	-0.0371
CACGTAGC	-0.273
TTAATAAA	0.381
TGACTCCA	-0.123

Sequence	PBM E-score
AACCGCGT	0.0693
CTAGGAGA	-0.0781
CACGTTCG	-0.0424
ATACAAAC	0.306
ATAGGCCG	-0.266
CACAGGTC	-0.199
GTACTTAA	0.118
CGCGTGGA	-0.226
GTTAGGGA	-0.172
CGTGGCAG	-0.0958
ATGACGAC	0.00677
GTCAACCA	0.0737
ATCATCCC	0.166
CGTTTATC	0.172
AACCAACA	0.165
CGTCATTA	0.047
ACTAAACA	0.177
ATAGTGGG	-0.0343
ACCACGCG	-0.164
